Screen size: about 310,000 compounds; about 14,000 (4.5%) showed an effect of 50% or more. Effects have a minus sign here. The list shows a part of the results.
Biological target: human ether-à-go-go-related gene (hERG) potassium channel (human, UniProt Q12809)
Assay: primary screen, population patch clamp on CHO cells stably expressing hERG
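Also: peak tail current of the secondary pulse compared with the same well before compound.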

Sequence of human ether-à-go-go-related gene (hERG) potassium channel (Q12809 whole entry, looked up): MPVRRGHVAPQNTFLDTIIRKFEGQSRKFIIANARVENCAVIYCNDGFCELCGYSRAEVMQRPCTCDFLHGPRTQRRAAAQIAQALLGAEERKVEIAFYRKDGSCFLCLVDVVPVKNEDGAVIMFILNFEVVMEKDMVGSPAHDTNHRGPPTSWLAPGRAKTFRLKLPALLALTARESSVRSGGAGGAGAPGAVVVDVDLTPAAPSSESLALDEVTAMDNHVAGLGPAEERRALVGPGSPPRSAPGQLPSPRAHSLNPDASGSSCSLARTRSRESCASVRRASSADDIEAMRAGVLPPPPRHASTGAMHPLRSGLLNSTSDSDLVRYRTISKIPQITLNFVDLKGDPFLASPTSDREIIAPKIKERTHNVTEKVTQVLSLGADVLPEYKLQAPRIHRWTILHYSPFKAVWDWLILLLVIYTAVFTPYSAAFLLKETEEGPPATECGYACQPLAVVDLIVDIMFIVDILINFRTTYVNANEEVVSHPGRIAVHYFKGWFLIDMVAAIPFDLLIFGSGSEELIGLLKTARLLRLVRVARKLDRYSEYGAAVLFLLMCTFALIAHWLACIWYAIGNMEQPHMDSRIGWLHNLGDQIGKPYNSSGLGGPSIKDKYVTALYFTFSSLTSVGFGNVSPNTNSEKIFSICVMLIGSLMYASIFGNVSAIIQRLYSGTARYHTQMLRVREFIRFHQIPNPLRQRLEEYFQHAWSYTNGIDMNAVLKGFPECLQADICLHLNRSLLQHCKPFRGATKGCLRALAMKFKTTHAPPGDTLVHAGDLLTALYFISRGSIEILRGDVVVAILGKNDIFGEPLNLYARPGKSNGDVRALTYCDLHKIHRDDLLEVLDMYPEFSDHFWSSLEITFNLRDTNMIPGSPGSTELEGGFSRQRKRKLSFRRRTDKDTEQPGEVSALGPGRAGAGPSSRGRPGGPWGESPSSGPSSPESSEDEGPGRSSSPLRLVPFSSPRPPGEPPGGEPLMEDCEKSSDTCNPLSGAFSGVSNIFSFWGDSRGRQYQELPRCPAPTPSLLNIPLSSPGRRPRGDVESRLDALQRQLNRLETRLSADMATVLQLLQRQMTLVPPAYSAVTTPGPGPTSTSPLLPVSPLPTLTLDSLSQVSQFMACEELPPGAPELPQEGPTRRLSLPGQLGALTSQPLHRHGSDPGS

SMILES | hERG current change (%, negative = inhibition) at 10uM
CC(C)c1ccc(N(CC(=O)NCCSC(C)(C)C)S(C)(=O)=O)cc1 | -13.8%
COc1cc2cc(CN(Cc3cccnc3)C(=O)NCc3ccccc3)c(=O)[nH]c2cc1OC | -12.6%
COc1ccccc1NC(=O)Cn1nnc(C(=O)NCc2ccc3c(c2)OCO3)c1N | -1.82%
OC(c1ccccc1)(c1ccc(Cl)cc1)C1CN2CCC1CC2 (stereo not drawn) | -56%
C/C=C(/C)C(=O)O[C@@H]1c2cc3c(c(OC)c2-c2c(cc(OC)c(OC)c2OC)[C@@H](OC(C)=O)[C@@H](C)[C@H]1C)OCO3 | 4.78%
CSC1=NCCN1C(=O)Cc1ccc(F)cc1 | 10.3%
Cc1ccc(Cl)c(NC(=O)CN2CCNC(=O)C2)c1Cl | 3.08%
CCOC(=O)c1nn(-c2ccc3c(c2)OCCO3)cc1O | -2.3%
CC(C)C[C@H](NC(=O)N1CC(=O)Nc2ccccc21)C(=O)N1CCC(C(=O)O)CC1 | 14.7%
COc1ccc(N/C=C2\C(=O)c3c(sc(C)c3C)N(C)S2(=O)=O)cc1 | -14%
CCOc1ccc(C(=O)NCC(=O)OC2CCOC2=O)cc1OCC (stereo not drawn) | 12.7%
Cc1cc(C)n(CC(=O)NNC(=O)CCCOc2ccc(Cl)c(C)c2)n1 | 15.9%
COc1ccc(C(=O)N2CCN(c3cccc(Cl)c3)CC2)cc1S(=O)(=O)NC1CC1 | -63.5%
Cc1nc(N2CCOCC2)sc1C(=O)NN | 14.8%
Cc1ccc(C(=O)NCCc2ccc(S(=O)(=O)N3CCCC3)cc2)cc1 | -0.599%
CC1CN(S(=O)(=O)c2ccc(C(=O)Nc3nnc(-c4ccccn4)o3)cc2)CC(C)O1 (stereo not drawn) | 7.07%
Cc1ccc(CCN2CC(C(=O)NCCc3ccccc3)CC2=O)cc1 (stereo not drawn) | -3.16%
C=CCn1c(C(CC)CC)nc2ccccc21 | 6.91%
O=NNc1nc2ccccc2n1Cc1ccccc1 | -1.83%

SMILES | hERG current change (%, negative = inhibition) at 10uM
CCN(CC(=O)Nc1c(F)cccc1F)C(=O)c1cc(C)oc1C | -5.71%
Cc1ccc(S(=O)(=O)N(C)C)cc1NC(=O)COC(=O)c1ccc2c(=O)n3c(nc2c1)CCC3 | -9.32%
Cc1ccc(N=CNc2ccc(C)cc2C)c(C)c1 | 16.8%
Cc1cc(NC(=O)CSc2nnc(C)c(=O)n2N)no1 | 11.8%
COc1ccc(CNC2CCCc3ccccc32)c(OC)c1 (stereo not drawn) | -36.9%
Cc1ccc2nsnc2c1S(=O)(=O)N1CCN(CCc2ccccc2)CC1 | -42.6%
CC1CCN(CCc2nc3cc(NS(=O)(=O)c4ccccc4)ccc3n2C)CC1 | -65.5%
CCN(CC)C(=O)/C(=C/c1cn(S(=O)(=O)N(C)C)c2ccccc12)NC(=O)c1ccc(OC)cc1 | 0.315%
COc1ccc(-c2nn3c(-c4ccco4)nnc3s2)cc1OC | -39.9%
O=C(NCc1ccc2c(c1)OCO2)C1CCN(c2ccc(S(=O)(=O)N3CCCC3)cc2)CC1 | -23.8%
Cc1ccc(-c2cc(C(=O)NCc3cn(C)nc3C)c3cc(Br)ccc3n2)cc1 | 5.18%
O=C(COc1ccc(F)cc1)N1CCCCCCC1 | 12.5%
CCOC(=O)NC(=O)COC(=O)c1ccc(Sc2ncn[nH]2)c([N+](=O)[O-])c1 | 26.8%
S=c1[nH]nc(COc2ccccc2)n1/N=C/c1ccc(Cl)cc1Cl | 18.2%
Cc1cnc(NC(=O)CN2CCN(c3ccccc3F)CC2)s1.Cl | 12.2%
CCOC(=O)C1CCN(Cc2cn(C)nc2-c2ccc(Oc3ccccc3)cc2)CC1 | -44.9%
Cc1ccc(Cl)cc1N1CCN(S(=O)(=O)c2ccc3c(c2)OCCO3)CC1 | 10.3%
NC(=O)N/N=C/c1cc(Br)ccc1OC(=O)c1ccccc1 | 25.4%
CCOc1cc(C2Nc3ccccc3NC3=C2C(=O)CC(C)(C)C3)ccc1OC(C)=O (stereo not drawn) | 1.7%

SMILES | hERG current change (%, negative = inhibition) at 10uM
S=C(NCCc1ccncc1)Nc1cccc2ccccc12 | 2.94%
CCSC1=N/C(=C\c2ccccc2)C(=O)N1c1ccc(OC)cc1 | 6.36%
COc1ccc(C2NC(=O)C(=O)/C2=C(\O)c2ccc(Cl)cc2)cc1OC (stereo not drawn) | 3.6%
CC(=O)Nc1ccc(NC(=O)CSc2nc3nc(C)cc(C)c3c(=O)[nH]2)cc1 | 14.7%
C=CCn1c(CCNC(=O)c2ccccc2F)nnc1SCc1nc2ccccc2c(=O)[nH]1 | -12.5%
CCN1CCN(CC(=O)Nc2sc3c(c2C#N)CCC(C)C3)CC1 (stereo not drawn) | -51.7%
COC(=O)c1cc(C)nc(Sc2ccccc2N)n1 | 20.9%
O=C(COc1ccccc1)NCc1cccs1 | 1.66%
O=C(CCSCCc1ccccn1)Nc1ccc(Cl)cn1 | -35.4%
COc1ccc2[nH]cc(CCN=C(N)N)c2c1.I | 12%
COC(=O)C1CN(C(=O)COc2ccccc2)c2ccccc2O1 (stereo not drawn) | 11.1%
Cc1cccc2sc(NC(=O)C3CC3)nc12 | 6.96%
COC(=O)c1ccccc1NC(=O)C1CCN(S(=O)(=O)c2cc(OC)ccc2OC)CC1 | -17.8%
Cc1cccc(-c2nc(CS(=O)CC(=O)NCC3CCCO3)c(C)o2)c1 (stereo not drawn) | -5.24%
CCN(CC)C(=O)Sc1cccc2cccnc12 | 8.19%
CC1(C)CC(CCNS(=O)(=O)c2ccccc2)(c2ccccc2)CCO1 (stereo not drawn) | -1.24%
CCCC(=O)Nc1ccc(C(=O)COC(=O)C2CC2C)cc1 (stereo not drawn) | 5.46%
COc1ccc(C(=O)NCc2ccccc2OC)cc1 | -10.3%
CCOC(=O)c1ccc(NC(=O)CSc2nnc(CNC(=O)c3ccco3)o2)cc1 | 16.4%
